PubChem BioAssay AID1159614 (National Center for Advancing Translational Sciences (NCATS), 2016)
Out of some 45,000 compounds screened, about 65 (0.1%) were called active. Calls follow the shape of the dose curve; as a rule, active = well fitted activation curve with a large enough effect; inconclusive = small, poorly fitted or top-dose-only effect; inactive = no such curve, though single readings can be large or run the other way. The list shows a part of the results.

The molecules below were run against Galactocerebrosidase (Homo sapiens) (UniProt P54803) (assay: A Novel Cell-Based Assay to Identify Small Molecules for B -Galactocerebrosidase). Conditions: 145M-Twi-hGALC-G270D cells (Twitcher mouse brain line with human GALC G270D), HMU-beta-Gal fluorescence, 48 h; series mostly up to 57.5 µM; activation: at the top concentration.
How it was run: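 Mutant human GALC (G270D), stably expressed in a Twitcher mouse brain cell line lacking endogenous GALC, is measured in live-treated cells via 6-hexadecanoylamino-4-methylumbelliferyl-β-galactoside hydrolysis (0.1 mM final, pH 5.2) with fluorescent detection.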
Also: 0% is about no effect; nearly all actives have a fitted effect of over 65% in size.

Sequence of UniProt P54803 (P54803 whole entry, looked up): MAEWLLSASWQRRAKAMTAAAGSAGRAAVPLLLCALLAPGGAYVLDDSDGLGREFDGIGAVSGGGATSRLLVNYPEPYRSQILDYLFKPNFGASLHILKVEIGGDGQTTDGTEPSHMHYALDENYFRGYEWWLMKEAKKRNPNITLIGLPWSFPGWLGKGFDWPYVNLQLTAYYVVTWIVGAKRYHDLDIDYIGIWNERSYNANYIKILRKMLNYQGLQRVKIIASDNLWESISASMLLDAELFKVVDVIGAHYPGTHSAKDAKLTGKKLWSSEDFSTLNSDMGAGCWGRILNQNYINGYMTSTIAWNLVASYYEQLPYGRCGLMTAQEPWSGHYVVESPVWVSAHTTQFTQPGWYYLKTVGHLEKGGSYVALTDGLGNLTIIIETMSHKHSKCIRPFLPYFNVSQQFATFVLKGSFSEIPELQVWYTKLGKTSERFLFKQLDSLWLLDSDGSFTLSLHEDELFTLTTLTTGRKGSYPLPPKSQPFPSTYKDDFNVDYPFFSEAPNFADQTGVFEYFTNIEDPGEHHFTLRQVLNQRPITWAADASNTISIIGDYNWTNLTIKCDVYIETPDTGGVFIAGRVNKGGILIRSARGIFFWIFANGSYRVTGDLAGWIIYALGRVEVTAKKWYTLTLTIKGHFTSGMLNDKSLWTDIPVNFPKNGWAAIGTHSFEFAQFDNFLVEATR

activation, inactive:
COc1cccc(OCCSc2nc(C)c(Cc3ccccc3)c(=O)[nH]2)c1 -10.5%
O=P(O)(O)OCC(O)CO (configuration not stated) -12.9%
COc1ccc(NC(=O)CCCN2C(=O)CCn3nc(-c4cn(C)c5ccccc45)cc32)cc1OC -2.24%
Cc1ccc(CN2CCSc3ccc(C(=O)NCC(C)c4ccccc4)cc32)cc1 (configuration not stated) -11.8%
COc1cc2c(cc1OC)C(COc1ccc3c(C)cc(=O)oc3c1)N(C(=O)c1cc(Cl)ccc1OC)CC2 (configuration not stated) 3.89%
CCC(=O)N1c2ccc(S(=O)(=O)NCc3ccc(F)cc3)cc2CC1C (configuration not stated) -22.3%
CCN(CC)C(=O)Cn1nnc2sc(-c3ccccc3)cc2c1=O 1.93%
COc1ccccc1C(=O)Nc1cc2c(cc1N1CCCC1)n(C)c(=O)c(=O)n2C -8.98%
COc1cccc(NC(=O)C2=C(C)C(=O)OC23CCN(C(C)=O)CC3)c1 -10.3%
CCN(C(=O)CSc1nc2ccccc2[nH]1)c1ccccc1 -12.8%
Cc1ccc(NC(=O)Cn2ccn(-c3ccccc3)c(=O)c2=O)cc1 -13.2%
CCOc1ccc(C2NC(=O)c3c(COC)cc(C)nc3N2Cc2ccccc2)cc1OC (configuration not stated) -14%
Cc1ccc(Cn2cc(S(=O)(=O)c3cccc(Cl)c3)c(=O)c3cc(F)c(N4CCOCC4)cc32)cc1 -10%
CCCOc1ccc(CNC(=O)c2ccc(-n3c(C)cc4c3CCC(C)C4)cc2)cc1 (configuration not stated) -17%
Cc1cc2oc(C(=O)Nc3ccc(S(=O)(=O)Nc4ncccn4)cc3)cc(=O)c2cc1C -3.44%
Cc1ccc(NC(=O)C2CCCN(S(=O)(=O)c3cn(C(C)C)cn3)C2)c(C)c1 (configuration not stated) -10.2%
COc1ccccc1-c1noc(CCC(=O)Nc2ccc(C)cc2C)n1 -16.5%
CC(C)OC(=O)c1c(NC(=O)C2c3ccccc3Oc3ccccc32)sc2c1CCCC2 -5.79%
COc1cc(OC)c(NC(=O)CCc2c(C)nc3cc(-c4ccccc4OC)nn3c2C)cc1Cl -30.9%
Cc1ccc(C)c(N2CCN(C(=O)c3ccc4c(c3)N(Cc3ccc(F)cc3)C(=O)c3ccccc3S4=O)CC2)c1 (configuration not stated) 0.324%
CC1CCC(Nc2nc3c(-c4cccc(C(F)(F)F)c4)nnn3c3ccccc23)CC1 (configuration not stated) -16.8%
CCc1ccc2oc(C(=O)Nc3cc(C)ccc3C)cc(=O)c2c1 -12.6%
CC(C)c1nn2c(=O)cc(COC(=O)c3ccccc3NC(=O)C3CCCCC3)nc2s1 -3.47%
O=C(Nc1cc2c(cc1C(=O)c1ccccc1Cl)OCCO2)c1ccccc1 0.66%
CC(=O)c1ccc(Nc2cc(C)nc3nc(Cc4ccc(Cl)cc4)nn23)cc1 -10.9%
CC1Cc2ccccc2N1C(=O)CSc1nnc(-c2ccccc2Cl)o1 (configuration not stated) -8.84%
CN(C)c1ccc(CNC(=O)c2ccccc2NC(=O)c2nsc3ccccc23)cc1 4.28%
Cc1cc(C)c(NC(=O)CCn2c(=O)c3cccn3c3cccnc32)c(C)c1 -12%
Clc1cccc(CNc2cc(-c3ccccc3)nc3nncn23)c1 -2.6%
CCc1ccccc1NC(=O)Cn1nc(C(F)(F)F)c2c1CCCC2 -19.5%
OCCN1CCN(C(c2ccccc2Cl)c2sc3nc(-c4ccco4)nn3c2O)CC1 (configuration not stated) -5.95%
Cc1cccc(N2C(=O)CS(=O)(=O)C23C(=O)N(Cc2c(F)cccc2Cl)c2ccccc23)c1 (configuration not stated) -20.6%
CSc1cccc(NC(=O)CN2CCN(Cc3ccccc3C)S2(=O)=O)c1 -7.41%
CCCS(=O)(=O)N1CC(=O)N(c2cc(C)ccc2C)C(C)(C(=O)NC2CCCCCC2)C1 (configuration not stated) 9.03%
N#CC1=C(N)N(c2cccc(Cl)c2)C2=C(C(=O)CCC2)C1c1cc(CN2CCOCC2)cs1 (configuration not stated) 1.82%
CC(C)N1C(=O)C(O)(c2c[nH]c3ccccc23)c2ccccc21 (configuration not stated) -25.3%
COc1cccc(-c2cn3c(n2)sc2cc(C(=O)NCCc4ccc(OC)c(OC)c4)ccc23)c1 -11.4%
Cc1cccc(N2CCn3c2nc2c3c(=O)n(CCc3ccccc3)c(=O)n2C)c1 -3.25%
O=C(O)CCCNc1cc(N2CCN(C3CCCCC3)CC2)c2noc3c2c1C(=O)c1ccccc1-3 -10.2%
CCOc1ccc(-c2cc(C(=O)Nc3ccc(NC(C)=O)cc3)no2)cc1 3.82%
CCOc1ccc(OCC)c(NC(=O)CC(C)n2nc(C)cc2C)c1 (configuration not stated) -14%
Cc1ccc2onc(CNC(=O)NCc3cccc(Cl)c3)c2c1 -13.5%
Cc1cc(C)cc(Oc2coc3cc(OCC(=O)NC4CCCCC4)ccc3c2=O)c1 -11.6%
Cc1cc(N)c(-n2cc3c(c2-c2ccc(Br)cc2)c(=O)n(C)c(=O)n3C)cc1C -15.9%
CC(=O)Nc1ccc(S(=O)(=O)N2CCC(c3nnnn3-c3ccccc3)CC2)cc1 -9.33%
CCOc1ccc(-n2nc(CO)c(C(=O)NCCCc3ccccc3)n2)cc1 -42%
Nc1nonc1-c1nc2ccccc2n1Cc1cccc(Cl)c1 1.83%
CCOc1ccc(NC(=O)CC2C(=O)N(c3ccc(C)cc3)C(=O)N2CCC2=CCCCC2)cc1 (configuration not stated) -18.2%
O=C(c1cccn2c(=O)c3cc(Cl)ccc3nc12)N1CCN(c2ccccc2F)CC1 -12.9%
CC(C)c1ccc(NC(=O)c2ccc(F)c(S(=O)(=O)N3CCc4ccccc4C3)c2)cc1 -13.8%
Cc1ccc(CN(C(=O)c2ccccc2F)c2ccccn2)o1 14.2%
CCOC(=O)c1ccccc1NC(=O)CSc1nc(=O)[nH]c2c1CCC2 -17.3%
Cc1ccccc1CN1C(=O)C2(c3ccccc31)N(c1ccccc1)C(=O)CS2(=O)=O (configuration not stated) -24.8%
COc1ccc(CCNC(=O)c2c(O)nc3ccccn3c2=O)cc1 -13.2%
COc1ccc(Cl)cc1NC(=O)Cn1cc(C(=O)c2ccc(C)cc2)c(=O)c2ccc(C)nc21 -22.8%
Cc1ccn2c(=O)c(C(=O)NCCCN3CCCCC3C)c(O)nc2c1 (configuration not stated) 0.415%
C=CCc1cccc2cc(C(=O)Nc3ccc(F)cc3)c(=O)oc12 -6.92%
COc1ccc2oc(=O)c(C(=O)Nc3ccc(C(=O)O)cc3)cc2c1 -14.2%
Cc1ccc(NC(=O)CCSc2nc(-c3ccco3)cc(C(F)(F)F)n2)cc1F -13.6%
O=C(COc1ccc(Cl)cc1)Nc1ccc(C(=O)OCc2cc(=O)n3ccsc3n2)cc1 -17.1%
C=Cc1ccc(Cn2c(C)c(CNCCc3ccccc3C)c(C(=O)O)c2C)cc1 -9.22%
FC(F)(F)Oc1ccc2c(c1)NC(c1ccncc1)=NC(c1cccs1)=N2 -27.4%
